Test results taken from PubChem BioAssay AID485294 (National Center for Advancing Translational Sciences (NCATS), 2010).
Screen size: about 370,000 compounds; about 150 (0.041%) were called active. The inconclusive results got no clear call from the source; some entries with a clear call stand among them for comparison. Calls come from the whole dose curve; as a rule, active = well fitted inhibition curve with a large enough effect; inconclusive = small, poorly fitted or top-dose-only effect; inactive = flat fitted curve, though single readings scatter. Potencies of inconclusive entries are left out as doubtful fits.

Target: Beta-lactamase (Escherichia coli (strain K12)) (UniProt P00811)
Assay: qHTS Inhibitors of AmpC Beta-Lactamase (assay with detergent); note: nearly all actives have a fitted effect of over 25% in size
Conditions: AmpC hydrolysis of nitrocefin, absorbance 480 nm, 0.01% Triton; series mostly up to 114 µM
In short: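 20 mM phosphate pH 7.0 + 0.01% (detergent screen) or 0.0001% Triton X-100; 5.3 nM AmpC reagent; cpd preinc 15 min RT; nitrocefin (800 uM stock) to start; A480 q20 s × 4 min; Activity was normalised to no-enzyme and no-compound control wells.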
Potency is the fitted concentration of half-maximal effect; tags give direction and shape of the fitted curve.

Sequence of UniProt P00811 (P00811 whole entry, looked up): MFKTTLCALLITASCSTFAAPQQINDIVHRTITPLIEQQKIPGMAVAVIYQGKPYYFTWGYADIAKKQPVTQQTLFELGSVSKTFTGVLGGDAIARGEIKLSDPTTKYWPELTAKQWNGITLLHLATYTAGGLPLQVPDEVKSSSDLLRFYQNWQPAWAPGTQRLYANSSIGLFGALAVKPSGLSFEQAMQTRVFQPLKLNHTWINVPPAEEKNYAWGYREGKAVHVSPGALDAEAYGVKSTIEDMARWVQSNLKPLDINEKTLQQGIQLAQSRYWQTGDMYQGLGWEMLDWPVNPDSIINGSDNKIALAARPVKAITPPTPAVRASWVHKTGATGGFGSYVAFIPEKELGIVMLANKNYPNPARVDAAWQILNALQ

Q: For `CCOc1ccc(N=c2scc(-c3ccccc3)n2CCO)cc1`, which Potency is on record?
A: inconclusive [inhibitor, full curve, poor fit]

Q: `COc1ccc(CCNC(=O)c2ccccc2Cl)cc1OC` was tested. Which Potency did it give?
A: inactive

Q: Which Potency does the source give for `O=C(C1CCC1)N(CCc1ccccc1)Cc1nc2ccccc2c(=O)[nH]1` here?
A: inactive

Q: For `CCOC(=O)C(O)(C1C(=O)CC(C)(C)CC1=O)C(F)(F)F` (stereo not drawn), which Potency is on record?
A: inconclusive [inhibitor, full curve, poor fit]

Q: With `CC(=O)NC(=S)Nc1ccc(NC(=O)c2cccs2)cc1` as the compound, how does the Potency read?
A: inactive

Q: For `CNS(=O)(=O)c1cccc(C(=O)OCC(=O)N2CCc3ccccc3C2)c1`, which Potency is on record?
A: inconclusive [inhibitor, full curve, poor fit]

Q: With `CC(O)CNC(=O)c1ccc(-c2nn(C)c(=O)c3ccccc23)cc1` (stereo not drawn) as the compound, how does the Potency read?
A: inconclusive [inhibitor, full curve, poor fit]

Q: With `CCOC(=O)C(C)Oc1cccc2c(=O)n(CC(=O)Nc3ccc(OCC)cc3)ccc12` (stereo not drawn) as the compound, how does the Potency read?
A: inconclusive [inhibitor, full curve, poor fit]

Q: Which Potency does the source give for `COc1cc(NS(=O)(=O)c2cc3c(cc2C)NC(=O)CO3)cc(OC)c1` here?
A: inconclusive [inhibitor, full curve, poor fit]

Q: For `CC1CC(C)CN(C(=O)COC(=O)C2CCN(S(=O)(=O)c3ccc4c(c3)OCCO4)CC2)C1` (stereo not drawn), which Potency is on record?
A: inconclusive [inhibitor, full curve]

Q: `CCOC(=O)N1CCC(c2cc(=O)n3[nH]c(C)c(-c4ccc(F)cc4)c3n2)CC1` was tested. Which Potency did it give?
A: inconclusive [inhibitor, full curve, poor fit]

Q: Which Potency does the source give for `CC(NC(=O)c1ccnn1C)C1CCCO1` (stereo not drawn) here?
A: inactive

Q: Which Potency does the source give for `CCCCNC(=O)CCSc1ccc(C)cc1` here?
A: inconclusive [inhibitor, full curve, poor fit]

Q: With `Cc1onc(-c2ccccc2)c1C(=O)Nc1nc2c(s1)CCCC2` as the compound, how does the Potency read?
A: inconclusive [inhibitor, full curve, poor fit]

Q: `Cc1ccc(S(=O)(=O)Nc2nc(C)cc(NCCN)n2)cc1` was tested. Which Potency did it give?
A: inconclusive [inhibitor, full curve]

Q: Which Potency does the source give for `NS(=O)(=O)c1ccc(NC(=O)C2CCCN(S(=O)(=O)c3ccc(F)cc3)C2)cc1` (stereo not drawn) here?
A: inconclusive [inhibitor, partial curve, poor fit]

Q: Which Potency does the source give for `Cc1ccccc1CSCc1nc(N)nc(Nc2ccccc2C)n1` here?
A: inconclusive [inhibitor, full curve, poor fit]

Q: With `c1ccc2c(c1)CCCC2C1=NCCN1` (stereo not drawn) as the compound, how does the Potency read?
A: inconclusive [inhibitor, full curve, poor fit]

Q: `CC1NC(=O)NC1CCCCC(=O)O` (stereo not drawn) was tested. Which Potency did it give?
A: inconclusive [inhibitor, partial curve, poor fit]

Q: How did the Potency turn out when `NC(=O)c1cc([N+](=O)[O-])ccc1NCCc1ccccc1` was run?
A: inconclusive [inhibitor, full curve, poor fit]

Q: `O=C(COC(=O)CCc1c[nH]c2ccccc12)Nc1ccccc1` was tested. Which Potency did it give?
A: inactive

Q: For `COc1ccc(CC(=O)N(Cc2cc3cc(OC)ccc3[nH]c2=O)C(C)C)cc1`, which Potency is on record?
A: inconclusive [inhibitor, partial curve, poor fit]

Q: For `CC(C)(CSc1nncn1N)NS(=O)(=O)c1ccc(Cl)cc1`, which Potency is on record?
A: inconclusive [inhibitor, single point]

Q: Which Potency does the source give for `O=C(NC1CCN(C(=O)NC2CCCCC2)CC1)c1cccc(F)c1` here?
A: inconclusive [inhibitor, partial curve]

Q: `COc1cccc(Oc2cc(NN3CCCCC3)c([N+](=O)[O-])cc2[N+](=O)[O-])c1OC` was tested. Which Potency did it give?
A: inconclusive [inhibitor, full curve, poor fit]

Q: For `Cc1nc(N2CCOCC2)nc(N2CCCCC2C)c1[N+](=O)[O-]` (stereo not drawn), which Potency is on record?
A: inactive

Q: Which Potency does the source give for `Cc1cc(C)n2nc(SCC#N)nc2n1` here?
A: inconclusive [inhibitor, full curve, poor fit]

Q: `Fc1ccc(CNC(=S)NCc2ccccc2)cc1` was tested. Which Potency did it give?
A: inactive

Q: For `CCN(CC)Cc1c(NC(=O)c2ccccc2)sc(C)c1C`, which Potency is on record?
A: inconclusive [inhibitor, single point]

Q: With `Cc1ccc(C)c(OCCC(=O)OCC(=O)NCCc2ccc(S(N)(=O)=O)cc2)c1` as the compound, how does the Potency read?
A: inconclusive [inhibitor, partial curve, poor fit]

Q: For `Cc1ccc(S(=O)(=O)N2CCOCC2)cc1NC(=O)COC(=O)COc1cccc2c1OC(C)(C)C2`, which Potency is on record?
A: inconclusive [inhibitor, full curve, poor fit]

Q: For `Cc1nc(N)sc1C(=O)N/N=C/c1c[nH]c2ccccc12`, which Potency is on record?
A: inactive

Q: `Cc1ccc(CNC(=O)COC(=O)C2CCN(S(=O)(=O)c3cccs3)CC2)cc1` was tested. Which Potency did it give?
A: inconclusive [inhibitor, full curve, poor fit]

Q: Which Potency does the source give for `CC1Cc2cc(S(=O)(=O)CCC(=O)NCc3ccccc3Cl)ccc2N1C(=O)C1CC1` (stereo not drawn) here?
A: inactive

Q: How did the Potency turn out when `COc1ccccc1CNC(=O)CSc1nnc2c(n1)[nH]c1ccc(F)cc12` was run?
A: inactive

Q: For `O=C(COc1ccc(F)cc1)N1CCCc2ccccc21`, which Potency is on record?
A: inconclusive [inhibitor, partial curve, poor fit]

Q: With `Cc1ccc(-c2nn[nH]n2)o1` as the compound, how does the Potency read?
A: inactive

Q: With `Cc1c(Cc2ccccc2)c(=O)oc2c(C)c(OCC(=O)NCc3ccccn3)ccc12` as the compound, how does the Potency read?
A: inconclusive [inhibitor, full curve, poor fit]

Q: `CC(C)N1C(=O)S/C(=C/c2ccccc2OCc2ccc(C(=O)O)cc2)C1=O` was tested. Which Potency did it give?
A: inconclusive [inhibitor, full curve]

Q: With `Cc1ccc(C)c(OCc2nc3ccccc3[nH]2)c1` as the compound, how does the Potency read?
A: inactive

Q: How did the Potency turn out when `CCc1sc(C(=O)NCc2ccco2)cc1C` was run?
A: inactive

Q: `O=C(Nc1ncccc1O)c1ccc(S(=O)(=O)N2CCCCCC2)cc1` was tested. Which Potency did it give?
A: inconclusive [inhibitor, full curve, poor fit]

Q: With `Cc1ccc(C(NC(=O)N2CCOCC2)=C(Cl)Cl)cc1F` as the compound, how does the Potency read?
A: inconclusive [inhibitor, full curve, poor fit]

Q: Which Potency does the source give for `CSc1nc2sc3c(c2c(=O)[nH]1)CCCC3` here?
A: inconclusive [inhibitor, full curve]

Q: For `COc1cccc(CN2CC(C(=O)NCCc3ccc(C)o3)CCC2=O)c1` (stereo not drawn), which Potency is on record?
A: inactive

Q: With `COc1ccccc1CNC(=O)Cn1nc(C(F)(F)F)cc1C` as the compound, how does the Potency read?
A: inconclusive [inhibitor, full curve, poor fit]

Q: With `Cc1ccc(S(=O)(=O)N2[C@@H](c3ccc(Cl)cc3)C(C(=O)O)=CC[C@H]2c2ccc(Cl)cc2)cc1` as the compound, how does the Potency read?
A: inconclusive [inhibitor, partial curve]

Q: `Cc1ccccc1NC(=O)c1c(-c2ccccc2)noc1C` was tested. Which Potency did it give?
A: inconclusive [inhibitor, full curve, poor fit]

Q: How did the Potency turn out when `COc1ccc(NC2CCCN(C(=O)CCc3ccccc3F)C2)cc1` (stereo not drawn) was run?
A: inconclusive [inhibitor, partial curve, poor fit]

Q: For `Cc1cc(NC(=O)c2ccc(C#N)cc2)n(-c2ccccc2)n1`, which Potency is on record?
A: inconclusive [inhibitor, full curve, poor fit]

Q: For `CCN(CC)c1ccc(/C=N/NC(=S)NCc2ccco2)cc1`, which Potency is on record?
A: inconclusive [inhibitor, partial curve]

Q: How did the Potency turn out when `CC(=O)N1N=C(c2cccs2)CC1c1ccc(Br)cc1` (stereo not drawn) was run?
A: inactive

Q: `O=C(CSc1cc(Cl)ccc1Cl)NC1CC1` was tested. Which Potency did it give?
A: inconclusive [inhibitor, full curve, poor fit]

Q: For `Cc1cc(N)n2ncc(-c3ccccc3)c2n1`, which Potency is on record?
A: inactive

Q: How did the Potency turn out when `COC(=O)CNC(c1ccccc1)c1cc(Br)ccc1NS(=O)(=O)c1ccccc1` (stereo not drawn) was run?
A: inconclusive [inhibitor, full curve, poor fit]

Q: How did the Potency turn out when `O=C(c1ccc(Cl)c(Cl)c1)N1CCC(=O)N(C(COCc2ccc(Cl)cc2)Cc2ccccc2)CC1` (stereo not drawn) was run?
A: inconclusive [inhibitor, full curve, poor fit]

Q: With `CCCC(C)c1nnc(NC(=O)c2cc(C(=O)OC)cc([N+](=O)[O-])c2)s1` (stereo not drawn) as the compound, how does the Potency read?
A: inconclusive [inhibitor, partial curve]

Q: For `O=C1c2ccccc2C(Nc2ccccc2)N1c1ccc(Cl)cn1` (stereo not drawn), which Potency is on record?
A: inactive

Q: With `COc1ccc(C(=O)C2CCCN(C(=O)c3ccc4nccnc4c3)C2)c(C)c1` (stereo not drawn) as the compound, how does the Potency read?
A: inactive

Q: For `Cc1cc(N/C=C2\CCCCC2=O)no1`, which Potency is on record?
A: inactive

Q: `Cc1cc2ncn(-c3ncnc4sc5c(c34)CCCC5)c2cc1C` was tested. Which Potency did it give?
A: inconclusive [inhibitor, single point]

Q: For `Cc1cccc(C(=O)N2CCc3cc(CNS(=O)(=O)c4ccc(F)c(Cl)c4)ccc32)c1`, which Potency is on record?
A: inactive

Q: `COC(=O)c1sc2nc(SCc3cccc(Cl)c3)n(N)c(=O)c2c1C` was tested. Which Potency did it give?
A: inconclusive [inhibitor, full curve, poor fit]

Q: Which Potency does the source give for `CC(=O)c1ccc(NC(=O)c2ccc3c(Cl)c4c(nc3c2)CCCC4)cc1` here?
A: inconclusive [inhibitor, full curve, poor fit]

Q: With `O=C(Nc1cccc2oc(=O)ccc12)c1ccc([N+](=O)[O-])cc1[N+](=O)[O-]` as the compound, how does the Potency read?
A: inconclusive [inhibitor, full curve, poor fit]

Q: How did the Potency turn out when `CN(CC(=O)Nc1cccc(S(=O)(=O)N(C)C)c1)Cc1ccccc1` was run?
A: inconclusive [inhibitor, full curve, poor fit]

Q: For `CCC(=O)Nc1ccccc1C(=O)N1CCN(Cc2ccccc2)CC1`, which Potency is on record?
A: inconclusive [inhibitor, partial curve]

Q: `Cc1cc(C)n(CC(=O)n2nc(C)cc2C)n1` was tested. Which Potency did it give?
A: inconclusive [inhibitor, full curve]
